PubChem BioAssay AID686979 (National Center for Advancing Translational Sciences (NCATS), 2013)
Hit rate of the full screen: of about 420,000 compounds, about 50,000 (12%) were called active. The inconclusive results got no clear call from the source; some entries with a clear call stand among them for comparison. Calls follow the shape of the dose curve; as a rule, active = well fitted inhibition curve with a large enough effect; inconclusive = small, poorly fitted or top-dose-only effect; inactive = flat fitted curve, though single readings scatter. No potency is given beside an inconclusive call; the fits are too rough.

experiment: qHTS for Inhibitors of human tyrosyl-DNA phosphodiesterase 1 (TDP1): qHTS in cells in presence of CPT; conditions: chicken DT40 Tdp1-/-;hTDP1 cells + 20 nM CPT, ATP luminescence, 48 h; activity change, negative = growth inhibition: at 46.2 µM (top of the series) unless noted; also: nearly all actives have a fitted effect of over 55% in size
Outline: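 Chicken DT40 Tdp1-/- cells stably complemented with human TDP1 were seeded at 400 cells/well in medium containing 20 nM camptothecin, exposed to pin-transferred compounds, and grown at 37 °C for at least 48 hr. Viability was read as ATP luminescence.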
% is scaled to controls: 0 for no effect and ±100 for the full control effect; potency is read from the fitted curve at half-maximal effect; tags tell the direction and shape of the fitted curve.

| SMILES | Potency | activity change, negative = growth inhibition |
| --- | --- | --- |
| COc1ccccc1Cn1c(SCC(N)=O)nc2c(oc3ccccc32)c1=O | inconclusive [inhibitor, single point] |  |
| COc1ccc(N2CCN(C(=O)c3ccc4c(c3)N(Cc3ccc(F)cc3)C(=O)c3ccccc3S4=O)CC2)cc1 (centres undefined) | inconclusive [inhibitor, single point] |  |
| OC(COc1ccccc1)CN1CCN(c2ccccc2)CC1 (centres undefined) |  | inconclusive: -3.37% [inhibitor] |
| CCOc1ccccc1NC(=O)Nc1cccc(C(C)=O)c1 | active: 29.1 µM |  |
| COc1ccc(/C=C2\SC(=S)N(C(Cc3ccccc3)C(=O)O)C2=O)cc1 (centres undefined) | inactive |  |
| O=C(Nc1cnn(C23CC4CC(CC(C4)C2)C3)c1)c1cnn2cccnc12 | inconclusive [inhibitor, single point] |  |
| Cc1ccccc1NC(=O)c1ccc(C)c(S(=O)(=O)N2CCN(C)CC2)c1 | inactive |  |
| C[C@@H]1CCCCO[C@H](CN(C)Cc2ccc3c(c2)OCO3)[C@H](C)CN([C@@H](C)CO)C(=O)c2cc(NC(=O)c3ccccc3)ccc2O1 | active: 25.9 µM |  |
| CN(c1ccccc1)S(=O)(=O)c1cccc(NC(=O)CN2CCCc3ccccc32)c1 | inconclusive [inhibitor, single point] |  |
| COc1ccc(-n2cc3ccc([N+](=O)[O-])cc3n2)cc1 | inconclusive [inhibitor, single point] |  |
| CC(Oc1ccc(Cl)cc1)C(=O)NNC(=S)NC(=O)c1ccco1 (centres undefined) | inconclusive [inhibitor, single point] |  |
| Clc1ccccc1CNc1nc2ccccc2n2cnnc12 | inactive |  |
| CN(C(=O)c1cccc(NC(=O)Cc2ccc(NC(=O)C3CCN(S(=O)(=O)c4cccc([N+](=O)[O-])c4)CC3)cc2)c1)C1CC1 | inconclusive [inhibitor, single point] |  |
| COc1ccccc1NC(=O)c1c(NCc2ccc(C)o2)sc2c1CCC(C)C2 (centres undefined) | active: 18.4 µM |  |
| O=C(O)c1ccc(OS(=O)(=O)c2ccc(Cl)s2)c(Cl)c1 | inactive |  |
| CN(Cc1ccccc1)c1cc2c(c3c1ccn3C)C1CCC2C1 (centres undefined) | inconclusive [inhibitor, single point] |  |
| CCOC(=O)/C(N=Nc1sc(C(=O)OC)c(C)c1C(=O)OCC)=C(\O)CCl | inconclusive [inhibitor, partial curve, poor fit] |  |
| Cc1coc2cc3oc(=O)c(CC(=O)N[C@@H](CC(C)C)C(=O)O)c(C)c3cc12 | inactive |  |
| CCOC(=O)/C(C(=O)Nc1ccccc1Cl)=C1/NC(C)(C)Cc2ccccc21 | inconclusive [inhibitor, single point] |  |
| CC(=O)c1cccc(NC(=O)N2CCCC2C(=O)Nc2ccc3c(c2)OCCO3)c1 (centres undefined) | inactive |  |
| COc1ccc(NC2=Nc3ccccc3N[C@@]23C[C@H]2CCCC(=O)N4CC[C@@H](C3)[C@@H]24)cc1 | inconclusive [inhibitor, single point] |  |
| CN(Cc1cccc(Cl)c1Cl)C(=O)CCNC(=O)c1ccco1 | inactive |  |
| Cc1c(CNCCc2ccc(Cl)cc2)c(C(=O)O)c(C)n1Cc1ccccc1 | inconclusive [inhibitor, single point] |  |

| SMILES | Potency | activity change, negative = growth inhibition |
| --- | --- | --- |
| Cc1onc(-c2ccccc2)c1C(=O)N/N=C/c1cc2c(cc1Cl)OCO2 | inconclusive [inhibitor, single point] |  |
| CCOC(=O)C1(CCOc2ccccc2)CCN(Cc2ccc(F)c(OC)c2)CC1 | inconclusive [inhibitor, single point] |  |
| CCOC(=O)c1c(C)n(CC(O)c2ccccc2)c2ccc(O)cc12 (centres undefined) | inconclusive [inhibitor, single point] |  |
| COc1ccc(-c2cn3c(n2)sc2cc(C(=O)NCCCN4CCCCCC4)ccc23)cc1 | active: 2.91 µM |  |
| COc1cccc(NC(=O)CSc2nccn(-c3ccc4c(c3)OCCO4)c2=O)c1 | inconclusive [inhibitor, single point] |  |
| Cc1cc(NS(=O)(=O)c2ccc(NC(=O)Cc3ccccc3)cc2)nc(C)n1 | inactive |  |
| CCOc1c2ccc(C(=O)NCc3ccc4c(c3)OCO4)cc2nn1C | inactive |  |
| CCCN(Cc1cc2cccc(C)c2[nH]c1=O)C(=O)c1cccc(OC)c1 | inconclusive [inhibitor, single point] |  |
| CC(=O)C1=C(C)NC(SCC(=O)c2ccccc2)=C(C#N)C1CC(C)C (centres undefined) | inconclusive [inhibitor, single point] |  |
| Cc1ccccc1NC(=O)/C(C#N)=C\c1cc(C)n(-c2ccc(C(=O)O)cc2)c1C | inactive |  |
| O=C(NCc1ccccc1CN1CCCC1)C1CCN(C(=O)c2ccc(Cl)cc2)CC1 | inactive |  |
| CC[C@@]12C(=O)N(c3cccc(Br)c3)C(=O)N1[C@H](c1ccc(Br)cc1)[C@@H]1C(=O)N(C(C)(C)C)C(=O)[C@@H]12 | inconclusive [inhibitor, single point] |  |
| CCOC(=O)c1c(C)[nH]c(C(=O)OCc2ccccc2)c1C | inactive |  |
| O=C(COC(=O)CNS(=O)(=O)c1c(Cl)cccc1Cl)Nc1cccnc1Cl | inactive |  |
| CCN(CC(=O)Nc1ccc(NC(C)=O)cc1)C(=O)/C=C/c1c(C)nn(-c2ccc(F)cc2)c1Cl | inconclusive [inhibitor, partial curve, poor fit] |  |
| Cc1ccccc1OCc1nnc(SCC(=O)Nc2ccc3c(c2)oc2ccccc23)n1C | inconclusive [inhibitor, partial curve] |  |
| CCOc1cccc2sc(NC(=O)c3ccc(Br)s3)nc12 | inconclusive [inhibitor, single point] |  |
| O=C1CC(N2CCN(c3ccc(O)cc3)CC2)C(=O)N1Cc1cccs1 (centres undefined) | inactive |  |
| CCOC(=O)c1c(C)nc2sc(C(=O)Nc3ccccc3)c(N)c2c1-c1ccc(OC)cc1 | inconclusive [inhibitor, single point] |  |
| CCc1nc2ccc(C(=O)N(CC)CCN(C)C)cn2c1N(C)Cc1nccs1 | inactive |  |
| Cc1cccc2cc(-c3ccccc3)c(-c3ccccc3)c[n+]12 | active: 8.2 µM |  |
| O=C(Nc1ccn(Cc2ccccc2F)n1)c1ccc(COc2cc(Cl)ccc2Cl)o1 | inconclusive [inhibitor, single point] |  |
| Cc1cccc(C2NC(=O)c3ccccc3N2)c1 (centres undefined) | active: 3.26 µM |  |

| SMILES | Potency | activity change, negative = growth inhibition |
| --- | --- | --- |
| COc1cccc(Nc2ncc3nc(-c4cccs4)c(=O)n(CCC#N)c3n2)c1 | inactive |  |
| Cc1cc(NC(=O)CSc2nnc(-c3ccncc3)n2C)n(-c2ccccc2)n1 | inactive |  |
| CCOC(=O)c1ccc(N2CN(CC)CNC2=S)cc1 | inconclusive [inhibitor, partial curve] |  |
| COc1ccc(-n2c(COc3ccc(C)cc3)nnc2SCc2ccc(C#N)cc2)cc1 | inconclusive [inhibitor, single point] |  |
| CCOc1ccc(NCc2ccccc2OCc2cccc(F)c2)cc1 | inconclusive [inhibitor, single point] |  |
| COc1cccc(N=c2oc3ccccc3cc2-c2nc3ccccc3[nH]2)c1 | active: 23.1 µM |  |
| Oc1c(CN2CCOCC2)ccc2ccccc12 | inconclusive [inhibitor, single point] |  |
| c1ccc2c(c1)CCc1ccccc1C2=C1CCNCC1 | active: 14.6 µM |  |
| CC1O[C@@H](O[C@@H]2C(O)C[C@H](O[C@@H]3C(O)C[C@@H](OC4CC[C@@]5(C)C6CC(O)[C@@]7(C)C(C8=CC(=O)OC8)CC[C@@]7(O)C6CC[C@@H]5C4)OC3C)OC2C)CC(O)[C@H]1O (some centres undefined) | active: 3.26 µM |  |
| Cn1c(=O)c2cc(NC(=O)CCc3ccc(O)cc3)ccc2n1Cc1cccc(C(F)(F)F)c1 | inconclusive [inhibitor, single point] |  |
| CCCn1c(NC(=O)C2CCN(C(=O)c3ccccc3C)CC2)nc2ccccc21 | active: 16.4 µM |  |
| O=C(c1c[nH]c2ccccc12)C(Cl)c1ccccc1 (centres undefined) | active: 23.1 µM |  |
| CN(C)CCCN(C(=O)c1cccs1)c1nc2ccc(F)cc2s1 | active: 16.4 µM |  |
| CCCC1C(C(=O)OCC)=C(C)NC(C)=C1C(=O)OCC |  | inconclusive: -31.6% [inhibitor] |
| Cc1cc(=O)oc2cc(OCC(=O)NC3CCN(Cc4ccccc4)CC3)c(Cl)cc12 | inconclusive [inhibitor, single point] |  |
| O=C(Nc1ccncc1)c1ccc(Cl)cc1 | inconclusive [inhibitor, single point] |  |
| CC(C)Oc1ccc(C(CC(=O)N(C)CCC#N)c2ccc(F)cc2)cc1 (centres undefined) | inconclusive [inhibitor, single point] |  |
| N#Cc1nc(-c2ccc(COc3ccccc3)o2)oc1NCc1ccccc1 | inconclusive [inhibitor, single point] |  |
| CCOC(=O)C1(Cc2cccc(OC)c2)CCN(CCO)CC1 | inactive |  |
| COc1ccc(-c2oc3cc(O[C@@H]4OC(CO)C(O)C(O)C4O)c(OC)c(O)c3c(=O)c2OC)cc1O (some centres undefined) | inconclusive [inhibitor, single point] |  |
| O=C(COc1ccc(Nc2ccccc2)cc1)Nc1ccncc1 | inconclusive [inhibitor, single point] |  |
| CN1CCc2nc(SCC(=O)Nc3ccc(Cl)cc3)c(C#N)cc2C1 | inconclusive [inhibitor, single point] |  |
| COc1ccc2cc(/C(C)=N/NC(=O)c3cc(C)oc3C)ccc2c1 | inconclusive [inhibitor, partial curve, poor fit] |  |
